Experimental data from the supplement of paper PMC12217912.
The list shows a part of the results. Sequences were assembled here from the parent chain. Inactive controls read about 0.05.

B1: TEV protease; numbered along this chain (parent)
chain: MGESLFKGPRDYNPISSSICHLTNESDGHTTSLYGIGFGPFIITNKHLFRRNNGTLVVQSLHGVFKVKDTTTLQQHLVDGRDMIIIRMPKDFPPFPQKLKFREPQREERICLVTTNFQTKSMSSMVSDTSCTFPSGDGIFWKHWIQTKDGQCGSPLVSTRDGFIVGIHSASNFTNTNNYFTSVPKNFMELLTNQEAQQWVSGWRLNADSVLWGGHKVFMVKPEEPFQPVKEATQL

Variants of: B1
Experiment: raw area under fraction-flipped curve 0-4 h after induction (AUC4h, not background-subtracted), DNA-recorder readout of cleavage of the substrate (dimensionless); higher = more cleavage of the substrate by the protease variant
Conditions: temperature: 34 °C; time window: 0-4 h after rhamnose induction
Procedure: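 In vivo DNA recorder in E. coli TOP10(DE3) ΔrhaA at 34 °C. Each TEVp single-site mutant (parent TEVp 0) is paired with a single-site variant of the 7-mer TEVs (canonical ENLYFQ|S). The substrate sits between flexible linkers in a Bxb1-sfGFP-TEVs-SsrA fusion, so cleavage stabilises Bxb1 and speeds flipping of a recombination array, read by NGS. The value is the raw area under the fraction-flipped curve over 0-4 h after rhamnose induction (AUC4h), with ≥20 reads per time point. It is not background-subtracted; inactive controls average about 0.047.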
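Note: Bxb1 expression induced with 0.2% (w/v) L-rhamnose at OD600 near 0.5, cultures sampled hourly, flipped fraction per protease–substrate barcode pair counted by paired-end Illumina sequencing.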

Row | Variant | area with substrate HNLYFQS | area with substrate INLYFQS | area with substrate LNLYFQS | area with substrate MNLYFQS | area with substrate NNLYFQS | area with substrate PNLYFQS | area with substrate SNLYFQS | area with substrate TNLYFQS | area with substrate WNLYFQS | area with substrate KNLYFQS | area with substrate VNLYFQS | area with substrate RNLYFQS | area with substrate QNLYFQS | area with substrate YNLYFQS
1 | MGESLFKGPRDYNPISSSICHLTNESDGHTTSLYGIGFGPFIITNKHLFRRNNGTLVVQSLHGVFKVKDTTTLQQHLVDGRDMKIIRMPKDFPPFPQKLKFREPQREERICLVTTNFQTKSMSSMVSDTSCTFPSGDGIFWKHWIQTKDGQCGSPLVSTRDGFIVGIHSASNFTNTNNYFTSVPKNFMELLTNQEAQQWVSGWRLNADSVLWGGHKVFMVKPEEPFQPVKEATQL [I84K] | 0.0508 | 0.0584 | 0.0414 | 0.0595 | 0.0602 | 0.0625 | 0.0522 | 0.0576 | 0.0427 | – | – | – | – | –
2 | MGESLFKGPRDYNPISSSICHLTNESDGHTTSLYGIGFGPFIITNKHLFRRNNGTLVVQSLHGVFKVKDTTTLQQHLVDGRDMIIIRMPKDFPPFPQKLKFREPQREERICLVTTNFQTKSMSSFVSDTSCTFPSGDGIFWKHWIQTKDGQCGSPLVSTRDGFIVGIHSASNFTNTNNYFTSVPKNFMELLTNQEAQQWVSGWRLNADSVLWGGHKVFMVKPEEPFQPVKEATQL [M125F] | 0.0438 | 0.0523 | 0.0659 | – | – | – | – | 0.097 | 0.0582 | 0.0862 | 0.0708 | – | – | –
3 | MGESLFKGPRDYNPISSSICHLTNESDGHTTSLYGIGFGPFIITNKHLFRRNNGTLVVQSLHGVFKVKDTTTLQQHLVDGRDMIIIRMPKDFPPFPQKLKFREPQREERICLVTTNFQTKSMSSMVSDTSCTFPSGDGIFWKHWIQTKDGQCGSPLVSTRDGFIVGIHHASNFTNTNNYFTSVPKNFMELLTNQEAQQWVSGWRLNADSVLWGGHKVFMVKPEEPFQPVKEATQL [S169H] | 0.0555 | – | – | 0.0577 | 0.0657 | – | 0.0456 | 0.0547 | 0.0573 | – | 0.0582 | 0.105 | – | –
4 | MGESLFKGPRDYNPISSSICHLTNESDGHTTSLYGIGFGPFIITNKHLFRRNNGTLVVQSLHGVFKVKDTTTLQQHLVDGRDMIIIRMPKDFPPFPQKLKFREPQREERICLVTTNFQTKSMSSMVSDTSCTFFSGDGIFWKHWIQTKDGQCGSPLVSTRDGFIVGIHSASNFTNTNNYFTSVPKNFMELLTNQEAQQWVSGWRLNADSVLWGGHKVFMVKPEEPFQPVKEATQL [P134F] | 0.0577 | – | – | – | 0.0414 | 0.0714 | 0.0608 | 0.0612 | 0.0611 | – | – | – | 0.0529 | –
5 | MGESLFKGPRDYNPISSSICHLTNESDGHTTSLYGIGFGPFIITNKHLFRRNNGTLVVQSLHGVFKVKDTTTLQQHLVDGRDMIIIRMPKDFPPFPQKLKFREPQREERICLVTTNFQTKSMSSMVSDTSCTFPSGDGIFWKHWIQTKFGQCGSPLVSTRDGFIVGIHSASNFTNTNNYFTSVPKNFMELLTNQEAQQWVSGWRLNADSVLWGGHKVFMVKPEEPFQPVKEATQL [D149F] | 0.0599 | – | 0.0543 | 0.0689 | 0.0896 | 0.0574 | 0.0539 | 0.0177 | 0.0612 | 0.0497 | 0.069 | – | – | 0.0544
6 | MGESLFKGPRDYNPISSSICHLTNESDGHTTSLYGIGFGPFIITNKHLFRRNNGTLVVQSLHGVFKVKDTTTLQQHLVDGRDMIIIRMPKDFPPFPQKLKFREPQREERICLVTTNFQTKSMSSMVSDTSCTFPSGWGIFWKHWIQTKDGQCGSPLVSTRDGFIVGIHSASNFTNTNNYFTSVPKNFMELLTNQEAQQWVSGWRLNADSVLWGGHKVFMVKPEEPFQPVKEATQL [D137W] | 0.0762 | – | – | – | – | – | 0.056 | – | 0.0581 | – | – | – | – | –
7 | MGESLFKGPRDYNPISSSICHLTNESDGHTTSLYGIGFGPFIITNKHLFRRNNGTLVVQSLHGVFKVKDTTTLQQHLVDGRDMIIIRMPKDFPPFPQKLKFREPQREERICLVTTNFQTKSMSSMVSDTSCTFPSGGGIFWKHWIQTKDGQCGSPLVSTRDGFIVGIHSASNFTNTNNYFTSVPKNFMELLTNQEAQQWVSGWRLNADSVLWGGHKVFMVKPEEPFQPVKEATQL [D137G] | 0.0582 | 0.0726 | 0.0689 | – | 0.0581 | 0.0557 | 0.0733 | 0.0591 | 0.0621 | 0.0685 | 0.0633 | – | 0.0726 | 0.0666
8 | MGESLFKGPRDYNPISSSICHLTNESDGHTTSLYGIGFGPFIITNKHLFRRNNGTLVVQSLHGVFKVKDTTTLQQHLVDGRDMIIIRMPKDFPPFPQKLKFREPQREERICLVTTNFQTKSMSSMVSDTSCTFPSGDGIFKKHWIQTKDGQCGSPLVSTRDGFIVGIHSASNFTNTNNYFTSVPKNFMELLTNQEAQQWVSGWRLNADSVLWGGHKVFMVKPEEPFQPVKEATQL [W141K] | 0.0508 | – | – | – | 0.0265 | 0.0573 | – | – | 0.0498 | 0.0555 | 0.0427 | – | – | 0.0545
9 | MGESLFKGPRDYNPISSSICHLTNESDGHTTSLYGIGFGPFIITNKHLFRRNNGTLVVQSLHGVFKVKDTTTLQQHLVDGRDMIIIRMPKDFPPFPQKLKFREPQREERICLVTTNFQTKSMSSMVSDTSCTFPSGDIIFWKHWIQTKDGQCGSPLVSTRDGFIVGIHSASNFTNTNNYFTSVPKNFMELLTNQEAQQWVSGWRLNADSVLWGGHKVFMVKPEEPFQPVKEATQL [G138I] | 0.0624 | – | – | – | 0.0359 | – | – | 0.0483 | 0.0549 | 0.0487 | – | – | – | –
10 | MGESLFKGPRDYNPISSSICHLTNESDGHTTSLYGIGFGPFIITNKHLFRRNNGTLVVQSLHGVFKVKDTTTLQQHLVDGRDMIIIRMPKDWPPFPQKLKFREPQREERICLVTTNFQTKSMSSMVSDTSCTFPSGDGIFWKHWIQTKDGQCGSPLVSTRDGFIVGIHSASNFTNTNNYFTSVPKNFMELLTNQEAQQWVSGWRLNADSVLWGGHKVFMVKPEEPFQPVKEATQL [F92W] | 0.0621 | 0.106 | – | – | – | 0.066 | – | – | – | 0.0633 | 0.0701 | – | – | –
